Measurements reported in PubChem BioAssay (NCATS).
Inconclusive results, whose numbers are uncertain, are shown with a selection of clear calls. For some of these results: Potencies beside an inconclusive call are fits to weak or partial responses and may not hold up. Active and inactive are the calls of the source.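 Rule for the calls, unless noted: active = compounds whose dose series gives a full or clear partial fitted curve of increased nuclear translocation; inconclusive = weak partial curve or effect only at the top dose; inactive = no dose-dependent translocation response.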

What was measured:
[1] = target: Glucocorticoid receptor (Homo sapiens) (UniProt P04150); test: GR-GFP Redistribution (AID 450); conditions: U2OS GR-GFP nuclear translocation, laser cytometry, 2 h; note: potency is the fitted concentration of half-maximal effect
[2] = target: Glucocorticoid receptor (Homo sapiens) (UniProt P04150); test: GR-EFC Redistribution (AID 451; calls by dose curve; note: potency is the fitted concentration of half-maximal effect); conditions: CHO-K1 GR-EFC translocation, beta-gal luminescence, 2 h
How it was run: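 Translocation of GR-ED fusion to nuclear EA restores b-gal, read by luminescence after 1 h room-temperature detection. Engineered CHO-K1 biosensor cells, 1,000/well, exposed 2 h at 37 C to titrations up to 46 uM final.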

[3] = qHTS Assay for Identification of Small Molecule Agonists for Hypoxia Response Element Signaling Pathway (AID 914; active = well fitted activation curve with a large enough effect in the signal ratio, with a control signal flat, not every such curve was filed as active; inconclusive = small, poorly fitted or top-dose-only effect, or effect the other way, or a change in a side signal; the % refers to the signal ratio; note: potency is the fitted concentration of half-maximal effect; for activation: top concentration of the series differs between compounds; % of control where 0% means no effect); conditions: ME-180 HRE-bla reporter, beta-lactamase ratio, CoCl2, 17 h; activation: stronger effect = higher value
How it was run: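 ME-180 cells carrying an HRE-driven beta-lactamase reporter were treated with compounds in a titration series plus an EC50 level of CoCl2 for 17 h at 37 degrees Celsius; CCF4 readout as the 460nm/530nm ratio gave AC50 values.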

[4] = target: DNA polymerase eta (Homo sapiens) (UniProt Q9Y253); test: qHTS for Inhibitors of Polymerase Eta: Confirmatory Assay for Cherry-picked Compounds (AID 720502; active = well fitted curve in the direction sought with a large enough effect; inconclusive = small, poorly fitted or top-dose-only effect, or another doubt; inactive = no such curve, though single readings can be large; an effect the other way counts as inactive or inconclusive; note: potency is the fitted concentration of half-maximal effect); conditions: Pol eta primer extension, TAMRA/BHQ fluorescence, 10 min
How it was run: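 Human Pol eta (10 nM) was preincubated with compounds for 15 min at room temperature before adding 50 nM (final) DNA substrate: primer plus TAMRA reporter strand annealed to a BHQ-2-labeled template. Fluorescence (ex 525/em 598 nm) was read at 0 and 10 min.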

[5] = target: 3',5'-cyclic-AMP phosphodiesterase 4B (Homo sapiens) (UniProt Q07343); test: qHTS Assay for Inhibitors of PDE-IV (AID 607; active = well fitted activation curve with a large enough effect in the main read-out, with a control signal flat, not every such curve was filed as active; inconclusive = small, poorly fitted or top-dose-only effect, or effect the other way, or a change in a side signal; note: potency is the fitted concentration of half-maximal effect); conditions: HEK293 ACTOne CNG channel cells, membrane potential fluorescence; activation (PDE inhibition): at 22.9 µM (top of the series)
How it was run: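 ACTOne HEK293 cells carry a modified cAMP-gated CNG channel and express endogenous PDE4; plated 1000 cells/well, compounds up to 22.9 uM final. Membrane-potential dye fluorescence (ex 535/em 590) was read; parental cells received 10 uM forskolin + 100 uM RO 20-1724.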

[6] = target: Ubiquitin carboxyl-terminal hydrolase 1 (Homo sapiens) (UniProt O94782); test: Inhibitors of USP1/UAF1: Pilot qHTS (AID 504865; active = well fitted curve in the direction sought with a large enough effect; inconclusive = small, poorly fitted or top-dose-only effect, or another doubt; inactive = no such curve, though single readings can be large; an effect the other way counts as inactive or inconclusive;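 note: rhodamine fluorescence freed from ubiquitin-rhodamine substrate followed over time; potency is the fitted concentration of half-maximal effect; nearly all actives have a fitted effect of over 35% in size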); conditions: purified USP1/UAF1, Ub-rhodamine cleavage fluorescence; series mostly up to 54.9 µM
How it was run: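 USP1/UAF1 complex (1nM) preincubated with compound 15 min at room temperature, then Ub-Rho substrate (150nM final) added. Fluorescence read kinetically at 480/540 nm, 6 reads every 60 seconds. Buffer: 50mM HEPES pH 7.8, 0.5mM EDTA, 0.1 mg/ml BSA, 1mM TCEP, 0.01% Tween-20.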

[7] = target: Mitogen-activated protein kinase 10 (Mus musculus) (UniProt Q61831); test: JNK3 AlphaScreen Assay (AID 530; active = well fitted curve in either direction with a large enough effect, not every such curve was filed as active; inconclusive = small, poorly fitted or top-dose-only effect, or another doubt;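 note: kinase came from lysate of stimulated human HepG2 cells; signal reports phosphorylation of biotinylated GST-cJun 1-79 at Ser73 with 10 µM ATP; % is set by controls: 0 for no effect and ±100 for the full control effect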); conditions: JNK3 lysate, c-Jun phosphorylation; activity change, negative = inhibition: at 57.1 µM (top of the series)
How it was run: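 Kinase buffer: 20 mM Tris-HCl pH 7.6, 10 mM MgCl2, 1 mM DTT, 0.1 mM Na3VO4, 0.01% Tween-20; ATP 10 uM. Substrate biotin-GST-cJun(1-79), enzyme from activated HepG2 lysates. Detection by Ser73 phospho-antibody AlphaScreen.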
Tags give direction and shape of the fitted curve or compound fluorescence and quenching.

Sequence of UniProt P04150 (P04150 whole entry, looked up, the tested form may be a part): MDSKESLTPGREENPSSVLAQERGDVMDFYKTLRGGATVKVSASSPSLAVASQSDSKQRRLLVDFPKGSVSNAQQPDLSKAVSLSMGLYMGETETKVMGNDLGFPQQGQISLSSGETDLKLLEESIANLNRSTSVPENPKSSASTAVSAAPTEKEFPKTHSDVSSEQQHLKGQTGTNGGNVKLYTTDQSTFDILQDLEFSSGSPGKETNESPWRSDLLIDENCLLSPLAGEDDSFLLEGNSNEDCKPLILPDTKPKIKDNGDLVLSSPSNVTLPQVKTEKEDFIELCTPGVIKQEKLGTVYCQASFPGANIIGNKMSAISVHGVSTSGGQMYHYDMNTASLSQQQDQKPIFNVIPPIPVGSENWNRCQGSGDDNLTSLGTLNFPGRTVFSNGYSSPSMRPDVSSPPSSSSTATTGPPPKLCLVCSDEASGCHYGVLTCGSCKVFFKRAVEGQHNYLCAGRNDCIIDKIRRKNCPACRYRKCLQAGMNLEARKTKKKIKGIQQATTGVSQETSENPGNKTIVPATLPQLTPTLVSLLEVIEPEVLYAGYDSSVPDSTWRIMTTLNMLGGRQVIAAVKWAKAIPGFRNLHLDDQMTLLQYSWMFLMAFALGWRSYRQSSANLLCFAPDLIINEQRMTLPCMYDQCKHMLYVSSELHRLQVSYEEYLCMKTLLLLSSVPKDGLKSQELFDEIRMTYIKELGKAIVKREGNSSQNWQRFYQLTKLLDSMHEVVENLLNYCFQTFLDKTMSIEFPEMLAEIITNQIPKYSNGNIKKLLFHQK
Sequence of UniProt Q07343 (Q07343 whole entry, looked up): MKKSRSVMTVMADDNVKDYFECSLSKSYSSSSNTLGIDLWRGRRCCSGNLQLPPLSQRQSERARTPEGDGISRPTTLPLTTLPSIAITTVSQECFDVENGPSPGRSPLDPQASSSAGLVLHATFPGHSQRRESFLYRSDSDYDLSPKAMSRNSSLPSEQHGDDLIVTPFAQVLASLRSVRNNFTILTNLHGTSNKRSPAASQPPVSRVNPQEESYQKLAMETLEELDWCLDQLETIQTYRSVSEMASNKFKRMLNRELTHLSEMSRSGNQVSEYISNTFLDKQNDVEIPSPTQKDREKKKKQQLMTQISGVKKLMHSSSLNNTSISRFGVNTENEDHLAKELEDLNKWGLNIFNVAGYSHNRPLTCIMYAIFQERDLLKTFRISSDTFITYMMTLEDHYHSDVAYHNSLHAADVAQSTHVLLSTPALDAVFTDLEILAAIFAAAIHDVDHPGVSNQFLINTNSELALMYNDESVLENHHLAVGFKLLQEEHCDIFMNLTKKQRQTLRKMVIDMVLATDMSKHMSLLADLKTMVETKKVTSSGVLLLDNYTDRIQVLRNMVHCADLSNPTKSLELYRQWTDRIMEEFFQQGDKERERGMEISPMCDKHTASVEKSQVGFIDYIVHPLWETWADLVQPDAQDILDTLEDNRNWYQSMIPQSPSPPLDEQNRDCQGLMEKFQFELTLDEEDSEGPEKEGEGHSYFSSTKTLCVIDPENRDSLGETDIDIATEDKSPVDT
Sequence of UniProt Q9Y253 (Q9Y253 whole entry, looked up): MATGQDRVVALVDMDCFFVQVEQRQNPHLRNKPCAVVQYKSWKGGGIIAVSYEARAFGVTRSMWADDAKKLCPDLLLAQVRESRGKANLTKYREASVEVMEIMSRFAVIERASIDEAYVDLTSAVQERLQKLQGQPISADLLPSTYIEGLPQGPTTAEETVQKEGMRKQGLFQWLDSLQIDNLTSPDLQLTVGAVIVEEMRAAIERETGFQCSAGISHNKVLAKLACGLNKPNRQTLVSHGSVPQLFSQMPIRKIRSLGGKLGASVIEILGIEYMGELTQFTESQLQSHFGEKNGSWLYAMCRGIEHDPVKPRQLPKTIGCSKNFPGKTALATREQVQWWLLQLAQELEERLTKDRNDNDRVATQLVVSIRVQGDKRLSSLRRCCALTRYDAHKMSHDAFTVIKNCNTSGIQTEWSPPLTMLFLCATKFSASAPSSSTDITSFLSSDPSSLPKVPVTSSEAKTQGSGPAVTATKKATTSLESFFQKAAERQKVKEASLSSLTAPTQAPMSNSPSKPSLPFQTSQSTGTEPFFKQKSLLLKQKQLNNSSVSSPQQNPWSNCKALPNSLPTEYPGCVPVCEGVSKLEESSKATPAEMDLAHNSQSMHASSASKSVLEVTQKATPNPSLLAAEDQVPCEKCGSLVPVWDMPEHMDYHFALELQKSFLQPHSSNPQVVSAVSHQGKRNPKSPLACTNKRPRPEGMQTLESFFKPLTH
Sequence of UniProt O94782 (O94782 whole entry, looked up): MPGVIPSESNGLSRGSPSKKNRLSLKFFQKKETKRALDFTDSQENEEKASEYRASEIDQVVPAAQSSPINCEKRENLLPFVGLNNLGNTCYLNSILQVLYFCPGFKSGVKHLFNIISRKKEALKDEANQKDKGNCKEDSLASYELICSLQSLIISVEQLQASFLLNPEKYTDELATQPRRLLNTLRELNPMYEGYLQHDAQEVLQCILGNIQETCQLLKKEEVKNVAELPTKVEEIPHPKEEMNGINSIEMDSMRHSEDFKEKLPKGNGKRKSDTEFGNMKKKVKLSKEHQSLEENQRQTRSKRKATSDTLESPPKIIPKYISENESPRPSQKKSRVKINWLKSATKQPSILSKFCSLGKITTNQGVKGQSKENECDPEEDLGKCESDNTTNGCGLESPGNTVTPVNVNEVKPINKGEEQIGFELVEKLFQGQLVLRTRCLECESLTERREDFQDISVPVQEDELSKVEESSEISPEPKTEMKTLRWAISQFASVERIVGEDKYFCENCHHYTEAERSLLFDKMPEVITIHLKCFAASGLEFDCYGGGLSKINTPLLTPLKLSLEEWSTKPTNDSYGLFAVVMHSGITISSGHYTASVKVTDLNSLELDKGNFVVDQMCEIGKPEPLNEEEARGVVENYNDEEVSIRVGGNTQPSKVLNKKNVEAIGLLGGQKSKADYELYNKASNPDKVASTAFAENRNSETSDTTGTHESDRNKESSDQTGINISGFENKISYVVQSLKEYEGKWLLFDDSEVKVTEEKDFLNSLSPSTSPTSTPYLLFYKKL

Structure (SMILES): C[C@]12C=CC(=O)C=C1CC[C@@H]1[C@H]3C[C@@H](O)[C@](O)(C(=O)CO)[C@]3(C)C[C@H](O)[C@]12F
- Potency [1]: active: 0.223 µM
- Potency [2]: active: 0.273 µM
- Potency [3]: inconclusive: 0.126 µM [inhibitor, full curve]

Structure (SMILES): COc1cc(N2CCCC2)c(OC)cc1/C=c1/sc2nc3ccccc3n2c1=O
- Potency [1]: inconclusive: 24.7 µM [partial curve]
- activation [3]: inconclusive: 27%

Structure (SMILES): COc1cccc(Cn2c(=O)c(-c3ccc(F)cc3)nc3cnc(OC)nc32)c1
- Potency [2]: inactive: > 46 µM

Structure (SMILES): c1coc(-c2nnc3sc(Cc4cccs4)nn23)c1
- Potency [1]: inactive: > 20.6 µM
- Potency [4]: inconclusive: 84.9 µM [inhibitor, single point]

Structure (SMILES): Cc1cccc(CNc2nc(-c3ccccc3CN(C)C)nc3ccccc23)c1
- Potency [1]: inconclusive: 12.3 µM [partial curve]
- Potency [5]: inconclusive: 3.16 µM [rising, partial curve]
- Potency [6]: inconclusive: 50.1 µM [inhibitor, partial curve]

Structure (SMILES): COc1cc(C2SCCCCCCCCCCSC(c3ccc(O)c(OC)c3)SCCCCCCCCCCS2)ccc1O (stereo not drawn)
- Potency [2]: inconclusive: > 9.22 µM [single point]
- activity change, negative = inhibition [7]: inactive: 1.07% [at 11.4 µM]
